Experiment in all cases: Primary Screen for Target Class Profiling of Small Molecule Inhibitors of Methyltransferases
Experiment [1] addresses Glycine N-methyltransferase (Homo sapiens) (UniProt Q14749). As to conditions: purified enzyme, MTase-Glo SAH luminescence; measured here: GNMT inhibition; at 40 µM; stronger effect = lower value. The gist of the method:
(§1)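 Each enzyme was reacted with SAM and its substrate, with compounds tested once at 40 uM; SAH formed was read by MTase-Glo luminescence.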

In experiment [2] the target is Guanidinoacetate N-methyltransferase (Homo sapiens) (UniProt Q14353). The conditions noted are these: purified enzyme, MTase-Glo SAH luminescence; measured here: GAMT inhibition; at 40 µM; stronger effect = lower value. Summed up: as §1
The target of experiment [3] is Histamine N-methyltransferase (Homo sapiens) (UniProt P50135). The conditions noted are these: purified enzyme, MTase-Glo SAH luminescence; measured here: HNMT inhibition; at 40 µM; stronger effect = lower value. Summed up: as §1
Experiment [4] has as its target Nicotinamide N-methyltransferase (Homo sapiens) (UniProt P40261). The conditions noted are these: purified enzyme, MTase-Glo SAH luminescence; measured here: NNMT inhibition; at 40 µM; stronger effect = lower value. The gist of the method: as §1
Experiment [5] concerns the target Phenylethanolamine N-methyltransferase (Homo sapiens) (UniProt P11086). The conditions noted are these: purified enzyme, MTase-Glo SAH luminescence; measured here: PNMT inhibition; at 40 µM; stronger effect = lower value. The gist of the method:
as §1

Some of the results follow. The main result of the screen is listed elsewhere. These columns were measured beside it and carry no call.
% is scaled to controls: 0 for no effect and ±100 for the full control effect.

As for `Cc1ccc2c(c1)C=Cc1cc(C)ccc1C2c1cn(Cc2ccc(C(=O)Nc3nn[nH]n3)o2)c(=O)[nH]c1=S`, the activity change, negative = inhibition in experiment [1] was -11.2%; in experiment [2], 13.9%; in experiment [3], 1.46%; in experiment [4], -27.8%; in experiment [5], -4.54%.
With `O=C(c1ccoc1)N1CCC(Nc2cccnc2)C1` (stereo not given), the activity change, negative = inhibition in experiment [1] is -39%; in experiment [2], -18.8%; in experiment [3] it was -1.68%; in experiment [4], -6.05%; in experiment [5] it was -29.4%.
For `CC(=O)NC(CO)C(=O)N1CCc2c(nc(-c3cccnc3)nc2N(C)C)C1` (stereo not given) the same measures were -5.66%, -8.01%, -4.48%, -13.9% and -8.23%.
Turning to `C=CC1(C)C=C2CC[C@H]3[C@@](C)(C(=O)O)CCC[C@]3(C)C2CC1` (stereo not given in full), the activity change, negative = inhibition in experiment [1] was -1.75%; in experiment [2], 1.66%; in experiment [3] it was 4.79%; in experiment [4] it was -18.8%; in experiment [5], -4.9%.
Take `O=C(NCCNC(=O)c1cccnc1)c1cccnc1`: the activity change, negative = inhibition in experiment [1] was -0.184%; in experiment [2], 0%; in experiment [3], 3.35%; in experiment [4] it was 18.8%; in experiment [5], 1.09%.
With `CC(C)CNC(=O)c1ccc2c(=O)n(CC(C)C)c3nn(Cc4ccc(F)cc4Cl)c(=O)n3c2c1`, the activity change, negative = inhibition turned out to be 7.63% in experiment [1]; 2.03% in experiment [2]; 8.82% in experiment [3]; 7.16% in experiment [4]; 8.76% in experiment [5].
For `Cc1cc(OCCN2CCOCC2)nn1-c1ccc2ccccc2c1` the same measures were -7.15%, -7.6%, -5.47%, -19.2% and -8.6%.
For `CC(C)C(=O)N1CCC2(CCCCO2)CC1` the same measures were -1.04%, -2.15%, -0.077%, -7.5% and -4.09%.
`Oc1ccccc1O`: the activity change, negative = inhibition in experiment [1] is -30%; in experiment [2], 13.2%; in experiment [3], 0.091%; in experiment [4] it was -7.53%; in experiment [5] it was 6.98%.
Regarding `COc1cc(OC)c2c(=O)[nH]c(-c3cc(C)c(OCCO)c(C)c3)nc2c1`, the activity change, negative = inhibition in experiment [1] is -15.6%; in experiment [2], -5.19%; in experiment [3], -15.7%; in experiment [4], -25.7%; in experiment [5], -12.4%.
Take `Cc1ccsc1-c1[nH]nc2ncc(-c3ccccc3O)nc12`: the activity change, negative = inhibition in experiment [1] is -39.4%; in experiment [2], -27.7%; in experiment [3] it was -32.2%; in experiment [4], -27.6%; in experiment [5] it was -13%.
On to `CN(C(=O)c1ccc2oc(Cc3ccc(Cl)cc3)nc2c1)[C@H]1COC[C@@H]1O`, for which the activity change, negative = inhibition in experiment [1] is -2.97%; in experiment [2] it was -1.81%; in experiment [3], 0.613%; in experiment [4], -10%; in experiment [5], 1.55%.
As to `O=C(Cn1c2ccccc2c2nc3n(c(=O)c21)CCS3)N1CCCC1`, the activity change, negative = inhibition in experiment [1] was -3.31%; in experiment [2], -6.23%; in experiment [3], 7.85%; in experiment [4], -11.4%; in experiment [5] it was 2.9%.
Consider `CC(C)(C)NC[C@H](O)COc1nsnc1N1CCOCC1`, for which the activity change, negative = inhibition in experiment [1] is -5.17%; in experiment [2], 2.31%; in experiment [3], -1.7%; in experiment [4], -3.64%; in experiment [5], 6.75%.
For `COCCN1CCC(C(=O)N2CCn3nc(Cc4ccccc4)cc3C2)C1` (stereo not given) the same measures were -1.27%, 0.569%, -4.06%, -1.31% and -0.245%.
`CC1(C(=O)NC2CCCC2)Cn2c(c(-n3cccc3)c3ccccc32)C(=O)N1CCc1cccs1` (stereo not given): the activity change, negative = inhibition in experiment [1] is 4.49%; in experiment [2], 0%; in experiment [3] it was 3.13%; in experiment [4] it was -3.64%; in experiment [5] it was 0.381%.
On to `O=C(CCn1ccc2cc(S(=O)(=O)N3CCCC3)ccc21)NC1CCN(Cc2ccccc2)CC1`, for which the activity change, negative = inhibition in experiment [1] was -2.03%; in experiment [2], 5.36%; in experiment [3], -11%; in experiment [4], 1.78%; in experiment [5], 2.2%.
Turning to `CC1(C)NC2N(C1=O)c1ccccc1C2(O)CC(C(=O)O)n1cnc2ccccc2c1=O` (stereo not given), the activity change, negative = inhibition was 0% in experiment [1]; 0.567% in experiment [2]; 5.34% in experiment [3]; -9.85% in experiment [4]; 1.68% in experiment [5].
On to `COC(=O)CNC(=O)c1cc(-c2cccnc2)c2nncn2n1`, for which the activity change, negative = inhibition in experiment [1] was -2.13%; in experiment [2] it was -0.551%; in experiment [3] it was 1.14%; in experiment [4] it was -2.67%; in experiment [5], -3.62%.
Consider `Cc1ccc(CN2C(=O)OC(c3cccc(NC(=O)c4ccc(F)cc4)c3)C2C(=O)NC2CC2)cc1` (stereo not given), for which the activity change, negative = inhibition in experiment [1] was -4.97%; in experiment [2], -2.75%; in experiment [3] it was -3.38%; in experiment [4] it was -4.81%; in experiment [5], 0.029%.
On to `CC(C)c1ccc(NC(=O)C(c2ccccc2)N(C)C(=O)Cc2c[nH]c3ccccc23)cc1` (stereo not given), for which the activity change, negative = inhibition in experiment [1] was -2.37%; in experiment [2], -30.4%; in experiment [3], 10.1%; in experiment [4], -38.7%; in experiment [5] it was -11.2%.
Take `NC(=O)[C@H]1C[C@@H](O)[C@H](O)[C@H]2[C@@H]1SC(=Nc1ccc(Cl)cc1)N2CC1CCCCC1`: the activity change, negative = inhibition in experiment [1] was -5.7%; in experiment [2], -6.67%; in experiment [3], -2.94%; in experiment [4], -24.4%; in experiment [5], -22.7%.
For `CCOCCCNc1nc2c(S(=O)(=O)c3ccc(Cl)cc3)nnn2c2ccccc12` the same measures were 3.84%, 0.491%, 5.79%, 5.21% and 0.996%.
As to `CCCn1c(=O)c2ccc(C(=O)NC3CCCCC3)cc2n2c(=O)n(Cc3ccccc3C)nc12`, the activity change, negative = inhibition was 1.13% in experiment [1]; 5.08% in experiment [2]; 1.43% in experiment [3]; 2.8% in experiment [4]; 1.32% in experiment [5].
Regarding `CCOCCOc1cccc(C(=O)N2C[C@@H](N(C)C)[C@H](C(C)C)C2)c1`, the activity change, negative = inhibition in experiment [1] was -4.33%; in experiment [2] it was -4.5%; in experiment [3], -1.37%; in experiment [4] it was -6.96%; in experiment [5], -7.18%.
Turning to `CC(C)OCCCn1c(=O)c2ccccc2n2c(SCc3c(F)cccc3Cl)nnc12`, the activity change, negative = inhibition is -3.76% in experiment [1]; 0% in experiment [2]; 0.544% in experiment [3]; -13.1% in experiment [4]; 0.012% in experiment [5].
For `CC1(COCC2CC2)COc2ccc(C(=O)Nc3cccc([S+](C)(=O)[O-])c3)cc2N1` (stereo not given) the same measures were -6.75%, -1.4%, -6.22%, -5.34% and -6.69%.
With `Cc1ccc(C(=O)Nc2ccc(CN3CCN(C)CC3)c(C(F)(F)F)c2)cc1C#Cc1cnc2cccnn12`, the activity change, negative = inhibition in experiment [1] was -19.7%; in experiment [2], 5.48%; in experiment [3] it was -14%; in experiment [4], -16.6%; in experiment [5] it was -2.25%.
As for `c1ccc2c(c1)CCC[C@H]2Nc1nc2ccccc2[nH]1`, the activity change, negative = inhibition is 3.46% in experiment [1]; 14.1% in experiment [2]; 1.45% in experiment [3]; -5.19% in experiment [4]; 8.87% in experiment [5].
`O=C(c1ccccc1F)N1CC2(C1)C(=O)Nc1ccccc12`: the activity change, negative = inhibition is -4.02% in experiment [1]; -3.66% in experiment [2]; -0.627% in experiment [3]; -7.91% in experiment [4]; -5.32% in experiment [5].
For `CCC(C)NC(=O)Cn1nc2n(Cc3ccccc3)c(=O)c3ccc(C(=O)NC4CCCC4)cc3n2c1=O` (stereo not given) the same measures were -5.28%, -0.225%, -0.407%, -8.53% and -3.29%.

Source of the values: PubChem BioAssay AID1745853 (National Center for Advancing Translational Sciences (NCATS), 2022).
